Test results from PubChem BioAssay AID995 (National Center for Advancing Translational Sciences (NCATS), 2007).
The campaign covered roughly 72,000 compounds. About 710 (0.99%) were called active. Inconclusive results, whose numbers are uncertain, are shown with a selection of clear calls. Calls come from the whole dose curve; as a rule, active = well fitted inhibition curve with a large enough effect; inconclusive = small, poorly fitted or top-dose-only effect; inactive = no such curve, though single readings can be large or run the other way. Potencies of inconclusive entries are left out as doubtful fits.

assay: qHTS Assay for Inhibitors of the ERK Signaling Pathway using a Homogeneous Screening Assay; details: HEK293-V1b, vasopressin-stimulated pERK AlphaScreen; series mostly up to 57.5 µM; note: nearly all actives have a fitted effect of over 55% in size
Text: qHTS Assay for Inhibitors of the ERK Signaling Pathway using a Homogeneous Screening Assay; note: nearly all actives have a fitted effect of over 55% in size
NIH Chemical Genomics Center [NCGC]
NIH Molecular Libraries Screening Centers Network [MLSCN]
Assay Submitter (PI): Dr. Wei Zheng, NCGC/NIH
The Ras/extracellular-signal-regulated kinase (ERK) mitogen activated protein (MAP) kinase signaling pathway (ERK1/2 cascade) plays is a key role in transmitting signals from the cell surface to the nucleus (Nishida and Gotoh 1993; Chang and Karin, 2001). The cascade is initiated by the small G-protein Ras, which recruits Raf […], where activation occurs. Alternatively, this pathway can be activated by elevating intracellular cAMP.
Activation of the ERK pathway is essential in increased cell division and cell survival. Sustained and constitutive activation of the ERK pathway, however, has been linked to uncontrolled cell proliferation, increased cell survival, and tumor progression. Thus, the ERK has been as an attractive target for cancer chemotherapy in the past few years (Sebolt-Leopold and Herrera, 2004). Given its physiological and pathological importance, assessment of ERK phosphorylation has been broadly performed in both basic research and drug discovery. Most assays for the measurement of ERK phosphorylation use the antibody-based detection methods, such as western blot and ELISA. These assays require multiple reagent additions with cell wash steps and are not suitable for high throughout screening.
The current cell-based ERK phosphorylation assay was performed using AlphaScreen platform. AlphaScreen is a two bead-based proximity-dependent chemical energy transfer luminescent assay platform. The assay reagents (ERK SureFire(TM) kit) were supplied from TGR BioSciences (Australia). In the presence of specific antibodies, phosphorylated ERK will bring "donor" and "acceptor" beads to a proximity range (<200 nm), and subsequently lead a chemical luminescent reaction upon exciting donor beads with 680 nm laser. To exclude the assay-related false positives, we used a biotinylated rabbit IgG to perform counter-screen. The biotinylated antibody mimics the phosphorylated ERK1/2 for bringing streptavidin coated beads and protein-A coated beads to a proximity range for the AlphaScreen detection.
NCGC Assay Protocol Summary:
HEK293 cells stably expressing type-1 vasopressin receptor (V1b) were maintained in DMEM medium (Invitrogen, Carlsbad, CA) at 37C under a humidified atmosphere containing 5% CO2 and 95% air. The medium contained 10% FBS, 2 mM L-glutamine, non-essential amino acid, pyruvate and 50 U/ml penicillin and 50 ug/ml streptomycin (Invitrogen). The aliquots of frozen cells were stored at -135C and used for the compound screening. All compounds were screened as titrations from 0.6 nM to 46 uM final concentration. Vasopressin was used to stimulate the ERK phosphorylation pathway. The ERK phosphorylation in cells was determined using an AlphaScreen assay kit provided by PerkinElmer. Data were normalized to the controls for basal activity (DMSO only) and 100% activation (25 nM vasopressin). AC50 values were determined from concentration-response data modeled with the standard Hill equation.
(1) Seed 4 ul/well of resuspended frozen HEK293 cells containing 2000 cells in white 1536-well plates for overnight with 1% FBS at 37C under a humidified atmosphere containing 5% CO2 and 95% air.
(2) Add 23 nL compounds in DMSO solution. The final titration was 0.6 nM to 46 uM.
(3) Incubate at 37C for 30 min.
(4) Dispense 0.5uL vasopressin (25 nM in final)
(5) Incubate at 37C for 5 min.
(6) Dispense 0.5uL of 1:2 diluted 5x lysis buffer.
(7) Incubate at 37C for 10 min.
(8) Dispense 1.5uL of mixture of activation buffer and reaction buffer with AlphaScreen beads (streptavidin donor beads and protein-A acceptor beads, 10 ng/well for each).
(9) Incubate at room temperature for 5 hr.
(10) Detect the assay plate in an EnVision plate reader (PerkinElmer) using the AlphaScreen detection mode.
[…]
Potency is the fitted concentration of half-maximal effect; tags give direction and shape of the fitted curve.

Structure (SMILES)	Potency
COc1ccc(OC)c(NC(=O)CN(c2ccc(OC)c(Cl)c2)S(C)(=O)=O)c1	inconclusive [inhibitor, partial curve, poor fit]
Cn1c(CSCc2ccc(F)cc2)nnc1SCC(=O)Nc1nccs1	inconclusive [inhibitor, single point]
Cn1c(=O)n(CCc2ccccc2)c(=O)c2c1nc1n2CCCN1Cc1ccccc1	inconclusive [inhibitor, partial curve]
CCCNC(=O)c1cc(-c2ccc(O)cc2)on1	inactive
CCCCn1c(NC(=O)c2ccccc2)c(C#N)c2nc3ccccc3nc21	inconclusive [inhibitor, single point]
COC(=O)c1c(OC)cc2c(c1C)Oc1c(Cl)c(O)c(Cl)c(C)c1C(=O)O2	inconclusive [inhibitor, single point]
Cc1ccc(S(=O)(=O)Cc2ccc(C(=O)NCc3ccc4c(c3)OCO4)o2)cc1	inactive
N#Cc1ccccc1NC(=O)c1ccc(-c2ccccc2Cl)o1	inactive
COc1ccc(OC)c(NC2c3ccccc3C(=O)N2Cc2ccc3c(c2)OCO3)c1 (stereo unspecified)	inactive
Cc1cc(-c2cccs2)c2c(n1)sc1c(=O)[nH]c(=O)[nH]c12	inconclusive [inhibitor, single point]
C[C@@]12CCC(OC(=O)c3ccccc3)CC1CCc1ccccc12 (stereo partly specified)	inactive
Cc1ccc(-n2c(C)cc(C(=O)COC(=O)c3c(C)noc3C)c2C)cc1	inactive
COc1ccc(CCNC(=O)c2oc3ccc(S(=O)(=O)N4CCOCC4)cc3c2C)cc1OC	inconclusive [inhibitor, full curve, poor fit]
COC(=O)c1cccc(S(=O)(=O)N2CCC(n3nnc4cc(F)ccc43)CC2)c1	inconclusive [inhibitor, single point]
Cc1cc(C(=O)CN2C(=O)c3ccccc3S2(=O)=O)c(C)n1CC1CCCO1 (stereo unspecified)	inactive
COc1cc(-c2nnc3sc(-c4ccco4)nn23)cc(OC)c1OC	inactive
COCC(C)n1c(C)cc(C(=O)COC(=O)c2oc3ccccc3c2C)c1C (stereo unspecified)	inconclusive [inhibitor, partial curve]
CCOCCCn1c(=NC(=O)c2cccnc2)c(C(=O)OCC)cc2c(=O)n3ccccc3nc21	inconclusive [inhibitor, partial curve]
N#Cc1sc2nc3c(c(-c4cccnc4)c2c1N)CCC3	inconclusive [inhibitor, partial curve]
CC(C)COc1ccc(C(=O)N(Cc2ccco2)C2CCS(=O)(=O)C2)cc1 (stereo unspecified)	inconclusive [inhibitor, single point]
CNc1ncnc2c1ncn2[C@@H]1O[C@@H](CO)[C@H](O)[C@@H]1O	inactive
CN1C(=O)/C(=C2\SC(=S)N(CC3CCCO3)C2=O)c2ccccc21 (stereo unspecified)	inconclusive [inhibitor, partial curve]
CNc1nc(-c2cccc(C#N)c2)nc2ccccc12	inconclusive [inhibitor, single point]

Structure (SMILES)	Potency
CCOC(=O)c1oc2cc(O)ccc2c(=O)c1-c1csc(C)n1	inactive
Cc1sc(NC(=O)c2ccc(Cl)s2)c(C(N)=O)c1C	inconclusive [inhibitor, single point]
CCOC(=O)C1=C(N2CCCCC2)c2cc3c(n2C1=O)CCCC3	inconclusive [inhibitor, single point]
CN(C)C(=O)c1ccc(-c2ccc3ncnc(NCc4cccs4)c3c2)cc1	active: 31.6 µM
Cc1ccc(Cl)cc1N1CCN(C(=O)CCS(=O)(=O)c2cccc3nonc23)CC1	inactive
Cc1cc(=O)oc2cc(OCC(=O)OCc3nnc(-c4ccccc4)o3)ccc12	inconclusive [inhibitor, single point]
Cc1ccc(Cn2nnc3c(=O)n(Cc4cccc(C)c4)cnc32)cc1	inactive
COc1cc(NC(=O)c2ccc(S(=O)(=O)N(C)C)cc2)cc(OC)c1OC	inconclusive [inhibitor, partial curve, poor fit]
O=C(Cn1nc(Cl)nc1Cl)c1cc2ccccc2oc1=O	inconclusive [inhibitor, partial curve]
Cc1cc(C(=O)COC(=O)c2n[nH]c3ccccc23)c(C)n1C	inconclusive [inhibitor, partial curve]
COC(=O)c1sccc1NC(=O)c1ccco1	inconclusive [inhibitor, partial curve, poor fit]
Cc1nc2scc(-c3ccco3)c2c(=O)n1/N=C/N(C)C	inconclusive [inhibitor, single point]
CCCC[C@@H]1C[C@H]1C(NC(=O)c1ccccc1)c1ccccc1 (stereo partly specified)	inactive
Cc1nc(SCC(=O)NCc2ccco2)c2c(C)c(C)sc2n1	inactive
Cn1cccc1-c1nc2ccccc2n1Cc1ccccc1	inactive
COc1cc([C@H](O)CO)ccc1O	inactive
Cc1nc2sc(-c3ccccc3)cc2c(=O)n1-n1cccc1	inactive
CSCC[C@H](NC(=O)C1CCN(S(=O)(=O)c2ccc(C)cc2)CC1)C(=O)NCC1CCCO1 (stereo partly specified)	inconclusive [inhibitor, full curve, poor fit]
Cc1ccccc1NC(=O)Cc1nnc(SCC(=O)N2CCN(c3ccccc3)CC2)n1C	inconclusive [inhibitor, single point]
Nc1nc(OCC(F)(F)F)cc(Oc2ccccc2F)n1	inactive
CN1C(=O)C2(c3ccccc31)N(C)CC(c1ccccn1)C21SC(=S)N(Cc2ccco2)C1=O (stereo unspecified)	inconclusive [inhibitor, partial curve]
O=C(Oc1ccccc1)N1CCC2(CC1)CN(c1ccccc1)C2	inconclusive [inhibitor, single point]
Cn1c(SCC(=O)Nc2ccc3cn[nH]c3c2)nnc1-c1cccs1	inconclusive [inhibitor, single point]
